Measured values from article PMC4336329 (PLoS ONE, 2015).
The whole screen tested about 310,000 compounds, of which about 14,000 (4.5%) showed an effect of 50% or more. Effects have a minus sign here. The list shows a part of the results.

target: human ether-à-go-go-related gene (hERG) potassium channel (human, UniProt Q12809); assay: primary screen, population patch clamp on CHO cells stably expressing hERG
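Further: peak tail current of the secondary pulse compared with the same well before compound.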

human ether-à-go-go-related gene (hERG) potassium channel, sequence (Q12809 whole entry, looked up): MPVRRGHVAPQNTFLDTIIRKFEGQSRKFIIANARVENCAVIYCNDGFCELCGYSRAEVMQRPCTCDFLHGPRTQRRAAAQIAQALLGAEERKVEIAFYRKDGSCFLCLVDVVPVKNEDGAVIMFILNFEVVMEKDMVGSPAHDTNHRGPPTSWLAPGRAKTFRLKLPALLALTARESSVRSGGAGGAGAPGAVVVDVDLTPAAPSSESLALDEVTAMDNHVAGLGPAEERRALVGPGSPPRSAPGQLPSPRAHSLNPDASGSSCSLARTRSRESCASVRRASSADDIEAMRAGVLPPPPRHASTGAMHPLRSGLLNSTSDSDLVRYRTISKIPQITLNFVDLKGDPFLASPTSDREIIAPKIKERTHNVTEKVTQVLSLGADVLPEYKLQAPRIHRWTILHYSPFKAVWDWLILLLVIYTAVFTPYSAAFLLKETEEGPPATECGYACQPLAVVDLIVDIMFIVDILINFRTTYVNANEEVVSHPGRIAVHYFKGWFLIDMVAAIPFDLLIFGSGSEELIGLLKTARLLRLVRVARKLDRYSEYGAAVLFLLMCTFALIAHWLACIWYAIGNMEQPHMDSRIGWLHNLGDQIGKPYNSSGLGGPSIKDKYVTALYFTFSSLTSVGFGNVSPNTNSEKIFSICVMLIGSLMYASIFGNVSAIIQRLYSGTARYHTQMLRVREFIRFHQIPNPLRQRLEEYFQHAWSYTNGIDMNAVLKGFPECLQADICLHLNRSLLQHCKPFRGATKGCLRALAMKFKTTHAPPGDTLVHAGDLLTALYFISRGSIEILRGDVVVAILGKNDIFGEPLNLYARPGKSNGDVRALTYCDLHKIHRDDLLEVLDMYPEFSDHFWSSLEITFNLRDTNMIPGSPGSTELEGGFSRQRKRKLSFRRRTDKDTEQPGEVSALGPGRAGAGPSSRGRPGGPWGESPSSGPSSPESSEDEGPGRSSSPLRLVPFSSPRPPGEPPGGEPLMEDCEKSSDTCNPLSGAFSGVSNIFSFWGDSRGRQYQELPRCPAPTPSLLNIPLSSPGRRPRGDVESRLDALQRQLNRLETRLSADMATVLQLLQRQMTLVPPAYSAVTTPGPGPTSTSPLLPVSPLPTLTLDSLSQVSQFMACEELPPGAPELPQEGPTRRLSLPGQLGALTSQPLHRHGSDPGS

| SMILES | hERG current change (%, negative = inhibition) at 10uM [%] |
| --- | --- |
| CC(=O)N(c1nnc(-c2ccc(C)cc2)s1)C1CCCC1 | 4.45 |
| Cc1ccc2[nH]c3c(c2c1)CCN(C)C3 | -1.44 |
| O=S(=O)(Nn1cnnc1)c1ccccc1 | 5.31 |
| Cc1coc2c(C)c3oc(=O)c(CCC(=O)N[C@@H](C)C(=O)N[C@@H](Cc4ccccc4)C(=O)O)c(C)c3cc12 | -10.2 |
| C=CCN(c1nc(C)c(Br)c(OC)n1)S(=O)(=O)c1ccc(C)cc1 | 13.5 |
| COc1ccc(-c2ccc(-c3noc(-c4ccccc4)n3)c(OC)n2)cc1 | -4.42 |
| Cc1noc(C)c1S(=O)(=O)Nc1cccc(CO)c1 | 13.9 |
| CC(=O)C1=C(C)NC(C)=C(C(C)=O)C1c1ccccc1 | 13.5 |
| COC(=O)CSc1nnc(-c2cccs2)n1-c1ccc(Cl)cc1 | -60.4 |
| COCCNC(=O)C(C#N)c1nc2ccccc2nc1N1CCCCCC1 (stereo not shown) | -14.2 |
| Brc1ccc(-c2nnc3n2CCCCC3)cc1 | -18.1 |
| CC(=O)NCCc1ccc(C(=O)Cn2cnc3ccccc3c2=O)cc1 | 2.36 |
| Cc1ccccc1-c1nnn(Cc2ccc(-c3nn[nH]n3)cc2)n1 | 10.7 |
| O=C(O)c1cc(=O)[nH]c2c(Cl)cccc12 | 19.8 |
| O=c1c2ccccc2[nH]c(=S)n1CCc1ccccc1 | 16.8 |
| O=c1c([N+](=O)[O-])cccn1Cc1cccc(Br)c1 | 0.665 |
| O=C(Cn1c(=O)oc2cc(S(=O)(=O)N3CCCCC3)ccc21)N1CCc2ccccc21 | 1.97 |
| COC(=O)CSc1nc2sc3c(c2c(=O)n1C1CCCCC1)CCN(C)C3 | -6.68 |
| CC(=O)Nc1ccc(NC(=O)c2ccccc2CCc2ccccc2)cc1 | 1.94 |
| Cc1ccccc1CCN(C(=O)Cn1nnc2ccccc21)C(C(=O)NCC1CCCO1)c1nc2ccccc2n1C (stereo not shown) | 7.51 |
| Brc1ccccc1OCCCCn1cnc2ccccc21.Cl | 11.7 |
| O=C(Cn1c(C(F)(F)F)nc2ccccc21)Oc1cccc(C(F)(F)F)c1 | -4.06 |
| COc1ccccc1NS(=O)(=O)c1cccc(C(=O)N2CC(C)OC(C)C2)c1 (stereo not shown) | -7.71 |

| SMILES | hERG current change (%, negative = inhibition) at 10uM [%] |
| --- | --- |
| Cc1cc(N2C(=O)C3CCC(c4ccccc4)CC3C2=O)no1 (stereo not shown) | 14.9 |
| CC(=O)c1cccc(NC(=O)NCCc2ccc(Cl)cc2)c1 | 7.64 |
| Cc1[nH]c2ccccc2c1C(=O)CSc1n[nH]c(N)n1 | -0.488 |
| O=c1cc(N2CCOCC2)[nH]c(=O)n1C1CCCCC1 | 9.61 |
| CCC(C)C(=O)Nc1ccc([N+](=O)[O-])cc1OC (stereo not shown) | 4.15 |
| O=C(CSc1ncnc2c1cnn2-c1ccccc1)Nc1ccc2c(c1)OCO2 | 20.3 |
| CN(C)CCNc1ncnc2c1cnn2-c1ccc(Cl)cc1 | -46.2 |
| Cn1c(C(=O)NCCc2ccccc2)cc(=O)n(C)c1=O | -5.02 |
| CN1C(=O)Cc2cc(S(=O)(=O)NCCc3ccc(Cl)cc3)ccc21 | -45.8 |
| Cc1ccc(-c2cc(C(=O)N3CCCC3)c3ccccc3n2)s1 | 0.887 |
| CCCCSc1nc(C)c(CC(=O)O)c(=O)[nH]1 | 8.77 |
| COc1ccc(C(=O)OCC(=O)c2ccc(Cl)s2)c(OC)c1OC | -7.61 |
| Cc1ccc2c(c1)CCCN2C(=O)C1CCCO1 (stereo not shown) | 13.4 |
| Cc1cc(C(=O)NC(C)C2CCCO2)cs1 (stereo not shown) | -2.99 |
| CCc1ccc(C(=O)Nc2ccc3nc(C)ccc3c2)cc1 | 3.89 |
| COc1ccc(NC(=O)N2CCN(S(=O)(=O)c3ccc(F)cc3)CC2)c(OC)c1 | -6.4 |
| CC(C)Sc1nc2ccccc2n2cnnc12 | -6.25 |
| Cc1[nH]nc(SCC(=O)N2CCOCC2)c1[N+](=O)[O-] | 10.2 |
| CN(CCS(=O)(=O)c1ccc(Cl)cc1)Cc1cccnc1 | 7.63 |
| CC1CCCCC12NC(=O)N(CC(=O)Nc1ccc(S(=O)(=O)N3CCOCC3)cc1)C2=O (stereo not shown) | -11.5 |
| COc1ccccc1NS(=O)(=O)c1cc(NC(=O)CNC(=O)c2ccccc2)ccc1C | 8.27 |
| Cc1noc(C)c1CSc1nc2ccccc2n1CCc1ccccc1 | -36.8 |
| O=C(Cc1cc(=O)[nH][nH]1)N/N=C/c1cccc(Cl)c1Cl | 12.1 |

| SMILES | hERG current change (%, negative = inhibition) at 10uM [%] |
| --- | --- |
| COc1ccc2oc(=Nc3ccccc3)c(-c3nc4ccccc4[nH]3)cc2c1 | 11.8 |
| CCN(c1ccccc1)S(=O)(=O)c1ccc2[nH]c(=O)c(=O)[nH]c2c1 | -1.66 |
| c1ccc2sc(SCc3ccc(-c4nnco4)cc3)nc2c1 | -4.77 |
| CC(Sc1nnc(C2CC2)n1C1CC1)C(=O)N(C)Cc1cccc(F)c1 (stereo not shown) | -2.58 |
| Cc1cc(N=Cc2c(O)ccc3ccccc23)no1 | -5.66 |
| NS(=O)(=O)c1ccc(N/N=C/c2ccncc2)cc1 | 28 |
| C=CCNC(=O)C1CC(=O)N(c2ccc(Br)cc2)C1 (stereo not shown) | -7.08 |
| COc1ccccc1N1CCN(C(=O)Cn2c(=O)oc3cc(S(=O)(=O)N4CCCC4)ccc32)CC1 | -13.7 |
| CN(C)S(=O)(=O)c1cc(NC(=O)CSc2ncc(C(F)(F)F)cc2Cl)ccc1Cl | -3.48 |
| COc1ccc(OC)c(S(=O)(=O)Nc2ccc(C(N)=O)cc2)c1 | 1.45 |
| O=C1OCCC1Sc1nnc(-c2ccco2)o1 (stereo not shown) | 9.37 |
| CCC(=O)Nc1ccc2c(c1)Cc1cc(NC(=O)CC)ccc1-2 | 11 |
| O=C(CCNS(=O)(=O)c1ccc(Br)s1)NCc1ccccc1 | -1.63 |
| COc1ccnc(Oc2ccccc2)c1C(=O)N/C=N/OCc1ccc(F)cc1Cl | -4.95 |
| OC1CCCN(Cc2nc(Cc3ccccc3Cl)no2)C1 (stereo not shown) | 9.94 |
| Cc1cc(C(=O)CSc2ncn[nH]2)c(C)n1-c1cccc(S(=O)(=O)N2CCOCC2)c1 | -28.5 |
| COc1ccc(NC(=O)C2CC2)cc1OC1CCCC1 | 3.26 |
| CCCN(C(=O)c1cccs1)c1nnc(-c2ccncc2)s1 | -16.8 |
| CCC(=O)NCCSc1c[nH]c2ccccc12 | -12.2 |
| COC(=O)[C@@H](NC(=O)N1CCC(C)CC1)C(C)C | 0.634 |
| N#Cc1c(NC(=O)Cn2cnc3ccccc3c2=O)oc(-c2ccccc2)c1-c1ccccc1 | 5.21 |
| COc1ccc(C(=O)N=c2sc3ccccc3n2C)cc1OC | 12.4 |
| CCOC(=O)C1C(=O)C(C(C)=O)C(=O)CC1CC(C)SCC (stereo not shown) | 0.222 |

| SMILES | hERG current change (%, negative = inhibition) at 10uM [%] |
| --- | --- |
| CCc1nnc(NC(=O)C2CC(=O)N(C3CCCC3)C2)s1 (stereo not shown) | 14.3 |
| COc1ccc2c(c1)C(C)=CC(C)(C)N2S(=O)(=O)c1ccc(NC(C)=O)cc1 | -1.74 |
| O=C(N/C(=C/C=C/c1ccccc1)C(=O)N1CCCCC1)c1ccc([N+](=O)[O-])cc1 | -72.8 |
| CCNC(=O)/C(C#N)=C/c1c(N2CCCCCC2)nc2ccccn2c1=O | -9.13 |
| COc1ccc(O)c(/C=N/Nc2nc(Nc3ccccc3)nc(-n3nc(C)cc3C)n2)c1 | 0.0873 |
| CCOC(=O)c1c(NC(=O)CSc2nnc(-c3ccc(Cl)cc3)o2)sc2c1CCC2 | -0.885 |
| O=C(Nc1ccn(Cc2ccccc2)n1)c1n[nH]c([N+](=O)[O-])c1Cl | -10.6 |
| CCc1nnc(NC(=O)CS(=O)(=O)c2ccccc2)s1 | 1.86 |
| Cc1cc(C)c[n+](CC(=O)c2ccccc2)c1.[Br-] | 22.8 |
| O=C(C[n+]1ccc(Cc2ccccc2)cc1)Nc1ccc([N+](=O)[O-])cc1Cl.[Cl-] | -24.8 |
| O=C(c1ccc(F)cc1)C1CCN(Cc2cn[nH]c2-c2ccccc2)CC1 | -78.8 |
| COc1ccc(CC(=O)Oc2ccc(F)c(F)c2)cc1S(=O)(=O)N1CCOCC1 | -43.8 |
| CN(C)c1ccc(C(=O)N2CCN(c3cc(C(F)(F)F)nc4ccccc34)CC2)cc1 | -26.4 |
| CC1(C)CC(=O)c2cnn(-c3nc4ccccc4[nH]3)c2C1 | 2.29 |
| O=C1c2cccnc2C(=O)N1Cc1ccccc1 | 3.86 |
| CCNc1nc(NC(C)C)nc(NS(=O)(=O)c2ccc(C)cc2)n1 | 12.8 |
| C=CC[n+]1c(C)csc1Nc1ccc(C)cc1.[Br-] | 0.033 |
| O=C(COC(=O)c1ccc(S(=O)(=O)N2CCCC2)cc1)Nc1ccc(Cl)cc1 | 4.84 |
| O=C(Nc1ccc2nc(-c3ccccn3)c(-c3ccccn3)nc2c1)N1CCOCC1 | 5.82 |
| O=C(CCNC(=O)c1ccco1)Nc1ccc(Cl)cc1 | 5.56 |
| O=C(Cn1c(=O)oc2ccccc21)Nc1n[nH]c(=S)s1 | 29.6 |
| Cc1cc(-c2nnc(CCC(=O)NC(C)c3ccccc3Cl)o2)no1 (stereo not shown) | 0.643 |
